According to paper PMC8959893, “T-Cell Responses to Immunodominant Listeria Epitopes Limit Vaccine-Directed Responses to the Colorectal Cancer Antigen, Guanylyl Cyclase C” (Frontiers in Immunology, 2022):

System: GUCY2C254-262-specific T-cells
Assay: IFNγ ELISpot: recognition of altered peptides by splenocytes of mice primed with Ad5-GUCY2C
Conditions: splenocytes of mice immunized with Ad5-GUCY2C, 10 ug/mL peptide, 24 h at 37°C, Figure 4B

Substance	Peptide recognition by GUCY2C254-262-specific CD8+ T-cells relative to native GUCY2C254-262 peptide
GUCY2CF255Y: GUCY2C254-262 peptide variant with F255Y point mutation at an H-2K^d anchoring residue (SYYDVKGDL; UniProt Q3UWA6 254-262, looked up, variant F255Y)	equivalent
GUCY2CL262I: GUCY2C254-262 peptide variant with L262I point mutation at an H-2K^d anchoring residue (SFYDVKGDI; UniProt Q3UWA6 254-262, looked up, variant L262I)	equivalent
GUCY2CV258S: GUCY2C254-262 peptide variant with V258S point mutation at an H-2K^d anchoring residue (SFYDSKGDL; UniProt Q3UWA6 254-262, looked up, variant V258S)	poorly recognized
